Measurements taken from PubChem BioAssay AID488969 (Vanderbilt High Throughput Screening Facility, 2010).
The full ranking holds about 110,000 compounds; the median of “z-score” is about -0.1, and the highest 2% start at about 2. The list shows a part of the results. Active and inactive are the calls of the source.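 Rule for the calls: active = z-score in the third read window above 3 or below -3; inactive = the rest.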

Target: Metabotropic glutamate receptor 8 (Rattus norvegicus) (UniProt P70579)
Assay: mGluR8 Gi/Go-coupled signaling modulation – cell-based, rat, thallium flux, HTS, primary screen (AID 488969)
Conditions: HEK293 rat mGluR8, GIRK (G protein-gated inwardly rectifying potassium channel) thallium flux, FluoZin2; at 10 µM; stronger effect = higher value; submaximal glutamate (EC20) added with thallium

Sequence of UniProt P70579 (P70579 whole entry, looked up): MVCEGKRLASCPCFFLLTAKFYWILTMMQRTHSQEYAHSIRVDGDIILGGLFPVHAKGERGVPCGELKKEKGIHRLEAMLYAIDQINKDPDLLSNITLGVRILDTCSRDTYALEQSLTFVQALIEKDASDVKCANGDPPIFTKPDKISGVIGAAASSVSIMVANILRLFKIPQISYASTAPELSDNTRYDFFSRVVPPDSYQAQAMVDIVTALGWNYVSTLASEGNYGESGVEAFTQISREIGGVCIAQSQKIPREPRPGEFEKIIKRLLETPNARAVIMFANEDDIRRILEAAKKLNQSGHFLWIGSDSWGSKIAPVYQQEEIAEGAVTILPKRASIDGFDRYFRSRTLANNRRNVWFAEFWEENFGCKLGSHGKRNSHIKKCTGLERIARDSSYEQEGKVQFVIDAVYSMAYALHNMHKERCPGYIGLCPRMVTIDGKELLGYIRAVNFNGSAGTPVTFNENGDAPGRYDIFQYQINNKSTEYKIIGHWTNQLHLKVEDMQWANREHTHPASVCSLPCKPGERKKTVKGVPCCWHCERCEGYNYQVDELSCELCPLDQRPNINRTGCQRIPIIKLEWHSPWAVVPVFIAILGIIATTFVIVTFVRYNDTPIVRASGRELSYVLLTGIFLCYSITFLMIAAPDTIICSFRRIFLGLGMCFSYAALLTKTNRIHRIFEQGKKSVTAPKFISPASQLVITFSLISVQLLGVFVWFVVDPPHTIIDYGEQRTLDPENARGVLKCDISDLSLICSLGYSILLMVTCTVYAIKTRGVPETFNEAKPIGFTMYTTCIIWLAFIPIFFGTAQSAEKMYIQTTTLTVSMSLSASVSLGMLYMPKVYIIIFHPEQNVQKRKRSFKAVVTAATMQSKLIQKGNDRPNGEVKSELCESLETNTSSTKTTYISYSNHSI

| Structure (SMILES) | z-score |
| --- | --- |
| CCCCCCCCC(=O)NCCOc1ccccc1 | -0.41 |
| CCC(C)(C)C(=O)Nc1ccc(C(N)=O)cc1 | -0.203 |
| Oc1ccc(/C=N/N=C(c2ccccc2)c2ccccc2)c(O)c1O | -0.213 |
| O=C(NC1CCCCC1)C(c1cccs1)N(C(=O)c1ccco1)c1ccc2c(c1)OCCO2 (stereo not given) | -0.214 |
| NS(=O)(=O)c1ccc(NC(=O)COC(=O)CCC2CCCCC2)cc1 | -0.157 |
| Cc1ccc(-c2cc(C(=O)Nc3nccs3)c3ccccc3n2)c(C)c1 | -0.126 |
| Cc1cc(NC(=O)CCNS(=O)(=O)c2cc(Br)cnc2N)ccc1Br | 0.393 |
| CCOC(=O)Cc1c(C)nc2c(-c3ccccc3)c(C)[nH]n2c1=O | 0.059 |
| COc1cc(/C=N\NC(=O)c2ccc(=O)[nH]n2)cc(OC)c1OC | 0.00269 |
| CCOc1cc(/C=N\Nc2nc(Nc3ccccc3)nc(N3CCOCC3)n2)ccc1OC(=O)c1ccco1 | -0.408 |
| CCOc1cc(C)ccc1OCc1nnc(SCC(=O)c2cccc([N+](=O)[O-])c2)n1CC | -0.204 |
| O=c1ccc(S(=O)(=O)N2CCC(Cc3ccccc3)CC2)c[nH]1 | 0.356 |
| Cc1ccc(S(=O)(=O)Cn2nnnc2C(C(C)C)N2CCc3ccccc3C2)cc1 (stereo not given) | -0.19 |
| CCOC(=O)Cc1c(C)nc2cc(-c3ccc(Cl)cc3)[nH]n2c1=O | -0.0742 |
| COc1cccc2cc(C(=O)C3=C(O)C(=O)N(CCN(C)C)C3c3ccc(F)cc3)oc12 (stereo not given) | 0.329 |
| CON=C1CCN(c2ncc(C(F)(F)F)cc2Cl)CC1 | -0.0727 |
| CCCn1c(NCCO)nc2ccccc21 | -0.0823 |
| O=S(=O)(c1cccs1)N1CCc2ccccc2C1 | -0.297 |
| Oc1nc(Nc2ccc(Cl)cc2Cl)sc1/C=C1\C=Nc2ccccc21 | -0.177 |
| CCOc1ccc(S(=O)(=O)N2CCN(c3ccc(OC)cc3)CC2)c2cccnc12 | -0.846 |
| Cc1ccc(CNC(=O)C(=O)NCCC2=CCCCC2)cc1 | -0.102 |
| COc1ccc(CCN(C(=O)C(F)(F)F)C(C(=O)NC2CCCCC2)c2cccs2)cc1 (stereo not given) | -0.557 |

| Structure (SMILES) | z-score |
| --- | --- |
| Cc1ccccc1NC(=O)c1nc[nH]c1C(=O)NCc1ccccc1 | 2.57 |
| Cc1ccccc1N1C(=O)CC(N(O)c2ccccc2)C1=O (stereo not given) | -0.314 |
| COc1ccc(-n2cnc(N)c2C(=O)c2cccc([N+](=O)[O-])c2)cc1 | -0.2 |
| CC(=Nc1cccc(C)c1)c1sc2ccccc2c1O | 0.348 |
| COC(=O)c1ccc2c(=O)n3c(nc2c1)SCC(c1ccccc1)=N3 | 0.163 |
| Brc1cccc(-c2nnc(-c3ccccc3)o2)c1 | 0.271 |
| CCC(CC)C(=O)Nc1cccc(C(=O)Nc2nccs2)c1 | -0.197 |
| Cc1nn(CC#N)c(=O)n1-c1ccccc1F | 0.142 |
| Cc1cccc(NC(=O)c2sc3nc(N)c(C#N)cc3c2N)c1 | 0.418 |
| CCn1c(C)c(C(C)=O)c(N2CCN(c3cccc(Cl)c3)CC2)nc1=S | -0.46 |
| O=C(NCc1ccco1)N1c2ccccc2Sc2ccccc21 | -0.113 |
| O=C1CC(c2ccccc2)CN1S(=O)(=O)c1ccccc1 (stereo not given) | 0.00794 |
| COc1ccc(OC)c(C(=O)CSc2nnc(Cc3cccs3)n2C)c1 | 0.123 |
| Clc1cccc(-c2cc3nc4c(c(N5CCN(c6cnccn6)CC5)n3n2)CCCC4)c1 | -0.109 |
| COc1ccc(C2SCC(=O)N2c2c(C)n(C)n(-c3ccccc3)c2=O)cc1 (stereo not given) | 0.975 |
| O=C(CO/N=C/c1cccc([N+](=O)[O-])c1)Nc1ccc2ccccc2c1 | -0.191 |
| Cc1ccc(SCC(=O)NCCN2C(=O)CSC2=O)cc1C | -0.359 |
| CCNC(=S)NN=C1CCC(C(C)(C)C)CC1 (stereo not given) | 0.883 |
| COc1ccc(Cn2c(N)c(C#N)c3nc4ccccc4nc32)cc1OC | -0.144 |
| O=C(Nc1cccnc1Cl)C1c2ccccc2Oc2ccccc21 | -0.112 |
| COCCCn1nnnc1SCC(=O)N1CCCC1 | 0.0657 |
| COc1cc(-c2nc(N)n[nH]2)cc(OC)c1OC | 0.486 |

| Structure (SMILES) | z-score |
| --- | --- |
| NS(=O)(=O)c1ccc(NC(=O)CSc2ccc3ccccc3n2)cc1 | 0.71 |
| Cc1noc(C)c1Cc1ccc(O)cc1 | 0.0375 |
| CN(C)c1cccc2c(S(=O)(=O)N3CCOCC3)cccc12 | 0.189 |
| O=C(CN1C(=O)NC2(CCCCCCC2)C1=O)N1CCc2ccccc2C1 | 0.404 |
| c1ccc2c(c1)NC(c1ccncc1)n1c-2nc2ccccc21 (stereo not given) | 0.38 |
| Cc1[nH]nc(-c2ccc(OCc3cnn(-c4ccccc4)c3)cc2O)c1Oc1ccc(F)cc1 | 0.0227 |
| Cc1cc(NC(=O)CCCC(=O)OCC(F)(F)C(F)F)cc(C)c1C(=O)O | 0.0155 |
| CC1(C)Cc2cccc(OCC(O)CN3CCN(c4ccccn4)CC3)c2O1 (stereo not given) | -0.193 |
| Clc1cccc(-c2ccnc3nc(-n4cccc4)nn23)c1 | -0.62 |
| CCN(CC)C(=O)Cn1c(=O)n(-c2ccccc2)c(=O)c2c3c(sc21)CCC3 | -0.395 |
| Cc1ccc(-c2nn3c(C)nnc3c3ccccc23)cc1S(=O)(=O)NCc1ccco1 | -0.674 |
| CCOC(=O)c1oc2nc(CC(C)C)c3c(c2c1N)CCC3 | -0.16 |
| Cc1ccc(S(=O)(=O)N2Cc3ccccc3CC2C(=O)Nc2ccc3c(c2)OCO3)cc1 (stereo not given) | -0.0374 |
| COc1cc2c(C)nc(C)c(C#N)c2cc1OC | -0.0127 |
| Cc1ccc(C(CCN)c2ccco2)cc1 (stereo not given) | 0.345 |
| COc1ccc(S(=O)(=O)N2CCOCC2)cc1C(=O)Nc1ccon1 | -0.151 |
| O=C(CSc1nccn1-c1cccc(Cl)c1)NC1CCCC1 | -0.421 |
| O=C(NCCO)C(F)(F)C(F)(F)C(F)(F)OC(F)(C(=O)NCCO)C(F)(F)F (stereo not given) | -0.00196 |
| COc1ccc(/C=N/NC(=O)CN(C2=NS(=O)(=O)c3ccccc32)c2ccccc2)cc1 | -0.0882 |
| O=C(c1cc2ccccc2oc1=O)N(c1ccccc1)C1C=CS(=O)(=O)C1 (stereo not given) | 0.129 |
| Cc1c(C(=O)OCC(=O)c2c(N)n(CC(C)C)c(=O)n(C)c2=O)oc2ccccc12 | -0.0376 |
| Fc1ccc2c(c1)C(c1ccncc1)=NNC(c1ccc(Cl)cc1)=N2 | -0.384 |

| Structure (SMILES) | z-score |
| --- | --- |
| Cc1ccc(CN2C3=NCCCN3c3ccccc32)cc1 | active: 3.51 |
| Cc1cccc2cc(C#N)c(SCc3nnc(-c4ccccc4[N+](=O)[O-])o3)nc12 | 0.1 |
| Cc1ccc(C(=O)Nc2ccc(Br)cc2)cc1S(=O)(=O)Nc1ccccn1 | -0.604 |
| CCOc1ccc(S(=O)(=O)NNC(=S)Nc2ccc(Br)cc2)cc1 | -0.268 |
| CC1(C)CC(=O)C(C(=S)Nc2ccc(F)cc2)=C(NCCN2CCOCC2)C1 | -0.128 |
| CCN(CC)S(=O)(=O)c1ccc(N(C)Cc2cccnc2)nc1 | 0.0198 |
| Cc1cc(C)cc(C(=O)N2CC(=O)Nc3ccccc32)c1 | 0.499 |
| COc1ccc(C2=NOC(C(=O)Nc3cc(Br)ccc3O)C2)cc1OC (stereo not given) | -0.876 |
| Cc1nc(N2CCN(C(=O)c3ccco3)CC2)c2c3c(sc2n1)CCCC3 | -0.769 |
| COc1ccc(CN2CCC(C(=O)NCCc3ccc(OC)c(OC)c3)CC2)c(OC)c1 | -0.218 |
| O=C(CSc1nc2cc(Cl)ccc2o1)N1CCOCC1 | 0.174 |
| Nn1c(SCC(=O)NC(=O)NCc2ccco2)nnc1-c1ccc(OC(F)F)cc1 | -0.503 |
| N#CC1C(=O)NC(N2CCN(c3ccccc3)CC2)=NC12CCCCC2 (stereo not given) | 0.568 |
| O=C(NCCCN1CCOCC1)c1ccc(Cl)s1 | -0.038 |
| O=C(O)CC(=O)Nc1ccccc1 | 0.399 |
| Cc1cc(=O)oc2c(C(=O)/C=C\c3cccs3)c(O)ccc12 | -0.288 |
| CCc1cccc(CC)c1NC(=O)C1SC(=Nc2ccccc2C)C(c2nc3ccccc3s2)=C1N (stereo not given) | -0.198 |
| O=C(C1COc2ccccc2O1)N1CCN(c2ccccc2F)CC1 (stereo not given) | 0.377 |
| O=C1Cc2ccccc2C(=O)N1Cc1ccccc1 | -0.415 |
| COc1ccc(/C=N/N=C2\SC(CC(=O)O)C(=O)N2c2ccccc2)cc1 (stereo not given) | -0.0303 |
| COc1ccc(CNC(=O)COC(=O)[C@H](Cc2c[nH]c3ccccc23)NC(=O)c2cccs2)cc1 | 0.0349 |
| COc1ccc(C(=O)Nc2nccs2)cc1[N+](=O)[O-] | 0.0439 |

| Structure (SMILES) | z-score |
| --- | --- |
| COc1ccc(CSCC(=O)Nc2ccc(S(=O)(=O)N3CCCCCC3)cc2)cc1 | -0.0163 |
| N#CC(C#N)=C/C(C#N)=C(/N)N1CCN(c2ccc(Cl)cc2)CC1 | -0.494 |
| CCN(CC)S(=O)(=O)c1csc(C(=O)OCC(=O)c2ccccc2)c1 | -0.217 |
| CCOC(=O)N1CCC(NC(=O)c2cc(-c3ccc(F)cc3)[nH]c2C)CC1 | -1.17 |
| CC(NC(=O)C12CC3CC(CC(C3)C1)C2)C(=O)NCCN(C)C (stereo not given) | -0.0417 |
| CSc1cccc(NC(=O)c2ccc(Cl)nc2)c1 | 0.136 |
| CCCCc1ccc(NC(=S)NN2CCOCC2)cc1 | 0.543 |
| C=CCN1C(=O)C(Cc2ccc(OC)cc2)S/C1=N\N=C\c1cccs1 (stereo not given) | -0.136 |
| O=C(Cc1cccc2ccccc12)N/N=C/c1ccc(Sc2cccc3cccnc23)o1 | 1.32 |
| COc1cc(C(=O)N2CCN(C/C=C/c3ccccc3)CC2)cc(OC)c1OC | 0.0718 |
| Cc1ccc(NC(=O)C2C3/C=C\CCCCC32)cc1 (stereo not given) | -0.169 |
| CC(C)C(=O)Nc1cccc(-c2cnc3ccccc3n2)c1 | -0.661 |
| Cc1nc2ccccn2c1C(=O)N/N=C/c1cc(C)n(-c2ccc(Br)cc2)c1C | -0.715 |
| O=C(Nc1ccc2c(c1)OCO2)N1CCN(C/C=C/c2ccccc2)CC1 | -0.663 |
| Cc1ccc(C)c(NS(=O)(=O)c2ccc(OCC(=O)NCc3ccco3)cc2)c1 | 0.0658 |
| COc1ccc(Cn2nnnc2C(c2ccccc2OC)N2CCC(C(N)=O)CC2)cc1 (stereo not given) | -0.0593 |
| CC(=O)Nc1cccc(NC(=O)C2CCCN2C(=O)Nc2ccccc2C)c1 (stereo not given) | 0.294 |
| Cc1ccc(S(=O)(=O)C2CCOC2=O)cc1 (stereo not given) | 0.328 |
| Cc1c(N=C2NC(=O)/C(=C/c3cccc([N+](=O)[O-])c3)S2)c(=O)n(-c2ccccc2)n1C | -0.318 |
| CC(NCc1ccc2c(c1)OCO2)C(=O)N1CCc2ccccc21 (stereo not given) | -1.01 |
| CCC(CC)c1nnc(NC(=O)[C@@H](NC(=O)c2cccc(C)c2)C(C)C)s1 | -0.254 |
| Cc1nc(C)c(C(=O)C2=C(O)C(=O)N(CCCn3ccnc3)C2c2ccccc2)s1 (stereo not given) | -0.201 |
